According to the BET-seq Pho4 binding data (Le et al. 2018):
The list shows a part of the results. The energies were worked out here from pooled read counts, against the library average; single values are noisy.

Target: T1, Pho4 (S. cerevisiae) (UniProt P07270)
T1 sequence: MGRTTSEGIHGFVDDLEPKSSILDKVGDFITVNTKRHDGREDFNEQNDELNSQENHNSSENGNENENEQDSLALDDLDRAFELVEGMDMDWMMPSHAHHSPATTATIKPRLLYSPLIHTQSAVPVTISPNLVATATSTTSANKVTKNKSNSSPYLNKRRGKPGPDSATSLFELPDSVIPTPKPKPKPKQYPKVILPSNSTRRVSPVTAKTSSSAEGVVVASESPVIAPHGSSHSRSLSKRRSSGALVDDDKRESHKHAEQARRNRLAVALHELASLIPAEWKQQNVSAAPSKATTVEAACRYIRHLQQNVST
Experiment: relative binding free energy (BET-seq); higher = weaker binding
Details: reference: library average

Sequence | relative binding free energy [kcal/mol]
GGGGGCACGTGCGGGT | -0.06
CTGGGCACGTGGGTAA | -0.16
TTCGTCACGTGAGGTG | 0.23
AGAGGCACGTGTGTTG | -0.02
GGGCTCACGTGGTGGC | 0.38
AGGAGCACGTGAATTG | 0.09
GAGGTCACGTGGTGAA | 0.04
CGTTTCACGTGGGGAA | 0.25
ACGTGCACGTGTTGGT | -0.22
TTGGTCACGTGATATT | 0.18
GCTTTCACGTGCTGTT | 0.28
AGATTCACGTGGCGGG | 0.37
GGAGTCACGTGTGACG | 0.17
GGAGTCACGTGCTCGT | 0.05
ATAAGCACGTGCAGGG | -0.21
AGTTGCACGTGACTTG | 0.16
TACTGCACGTGTCGGG | 0.06
TTAGACACGTGTAAGT | 0.11
GGGTGCACGTGATGCA | 0.12
TCGTGCACGTGGGAAG | -0.12
GGGTACACGTGTATTG | 0
TTTATCACGTGAACTG | 0.34
TTCATCACGTGAGTAG | 0.24
TGGTACACGTGGGCAT | -0.2
CTGGTCACGTGTTATG | 0.01
AAAGTCACGTGTGCTT | 0.08

Sequence | relative binding free energy [kcal/mol]
CGGGTCACGTGAAGTG | 0.34
TTAGGCACGTGTGCCT | -0.04
GCGGGCACGTGATGTT | 0.18
AAACGCACGTGGTTTG | -0.03
TGTTTCACGTGGGAAT | 0.26
AGGCTCACGTGTCGTG | 0.19
ATTGACACGTGTAATT | 0.22
TAGAACACGTGGATGT | -0.02
TTGGTCACGTGATGGG | 0.31
GTCTTCACGTGTGTGG | 0.32
TTTTCCACGTGTGGTG | 0.1
TGTGCCACGTGGCGGA | -0.17
AGGCACACGTGGGTGA | -0.22
GCAGGCACGTGTGCGT | -0.12
TTTCACACGTGGGAGG | -0.05
TGGTACACGTGTGATA | 0.3
TGTGTCACGTGTGAGA | 0.22
GTGGTCACGTGCAGTG | 0.23
TGAGGCACGTGGATTA | -0.1
AGATGCACGTGGAGTG | -0.02
TGTAACACGTGTGATG | -0.05
GTTAGCACGTGTTGCA | -0.03
GTTTTCACGTGCGCGG | 0.27
AGGGTCACGTGTGACA | 0.15
TGCTGCACGTGTAGTA | 0.01
GGGGACACGTGGGAGC | -0.06

Sequence | relative binding free energy [kcal/mol]
CTTTTCACGTGATTCG | 0.24
CGGGTCACGTGAATAT | 0.24
CCGTTCACGTGGGGGA | 0.22
TGTCTCACGTGCATGT | 0.06
TCAATCACGTGTTTTG | 0.13
GATTACACGTGGTAAT | 0.11
AGGCTCACGTGTGTGT | 0.19
TTCGACACGTGCTGGT | 0.12
TTGTTCACGTGGGGGT | 0.13
TTGACCACGTGTGTTT | -0.07
TTCCTCACGTGTTTTT | 0.19
ATTGGCACGTGCCGCG | -0.17
CGGGGCACGTGGGATT | -0.2
AGTTACACGTGGATTT | 0.03
TGCTTCACGTGCTGGA | 0.24
TTTGCCACGTGAAGTA | 0.3
GTTTGCACGTGTGGCG | 0.13
TTACTCACGTGGGGGC | 0.19
CCGGTCACGTGGGGCG | -0.04
GGGATCACGTGGCTTG | 0.11
TAATGCACGTGAGAGA | 0.22
CGTGACACGTGGGGAT | -0.13
TTTATCACGTGGGAGG | 0.17
GTGGTCACGTGCTATT | 0.05
TGTTGCACGTGTTACG | 0.14
GGGGGCACGTGGGGCG | -0.15

Sequence | relative binding free energy [kcal/mol]
TGTATCACGTGAGGAG | 0.41
GATTGCACGTGAGTGA | 0.29
TGTTGCACGTGTGCCT | -0.04
TCTGACACGTGTGTAT | 0.09
CGTGGCACGTGTGACG | 0.09
GTGTTCACGTGGGAGT | 0.24
GGGATCACGTGTTTAA | 0.15
CTGCTCACGTGTGGGG | 0.19
GTTTTCACGTGAGGTG | 0.53
GGGGTCACGTGCGAAG | 0.06
TAGATCACGTGGAGTA | 0.06
CATGTCACGTGCGGGG | -0.02
CGTGGCACGTGTCGTG | -0.1
GTATACACGTGTGGGC | -0.01
GGAGACACGTGAATGG | 0.35
ATTGGCACGTGGTCGG | -0.21
TGTGCCACGTGGTGTT | -0.2
TCTGACACGTGTGTGT | 0.05
GGTGTCACGTGATCTA | 0.35
TTAGTCACGTGTGAAG | 0.05
TGATTCACGTGCGTTG | 0.11
AGGGTCACGTGTGCTG | 0.16
TGTGTCACGTGTAGTC | 0.19
TAATACACGTGGTGTG | -0.09
ACGTGCACGTGATTGT | -0.04
ATTGCCACGTGAAGTG | 0.05

Sequence | relative binding free energy [kcal/mol]
GTTTTCACGTGCTGAT | 0.28
GGGTTCACGTGGGACA | 0.17
AAATTCACGTGGGGTA | 0.13
AAGGTCACGTGGTAGT | 0.02
CGCTGCACGTGGGCGT | -0.23
GCGGGCACGTGGTGTA | -0.03
ATGTCCACGTGGGGGC | -0.18
TCGATCACGTGGGGAA | 0.05
AGGTACACGTGGTGAG | 0.08
ATCTGCACGTGTCGGT | 0
GTGAACACGTGCAAGT | 0.22
TTTGGCACGTGGTCAG | -0.13
TGTGCCACGTGGACGG | 0
AATGGCACGTGATTCG | 0.03
GAAGGCACGTGGGAAA | 0.05
AGGCACACGTGTTTTT | 0.08
TTAAGCACGTGGGTGC | -0.18
CGTGGCACGTGTCATG | -0.22
ATTGTCACGTGTATCA | -0.02
TGATTCACGTGGTTTC | 0.25
CTTTACACGTGCGTTT | 0.01
GGACGCACGTGTTGTG | -0.02
TATTGCACGTGGTTGG | 0
AAAGCCACGTGTGTGT | -0.02
TTAAGCACGTGCGAGG | -0.17
TGATGCACGTGATTTT | 0.17

Sequence | relative binding free energy [kcal/mol]
TTAATCACGTGAGTGA | 0.27
GTATACACGTGAGTAA | 0.31
GGATTCACGTGGAAAT | 0.39
ATGAACACGTGATGGA | 0.18
TGAATCACGTGATGTT | 0.3
ATGTCCACGTGGTAGT | 0.03
TGATTCACGTGACATT | 0.32
GGCTGCACGTGAGGTG | 0.27
GGATGCACGTGAAGGA | 0.21
GATGACACGTGATGTT | 0.09
AGTTACACGTGAGGGG | 0.29
AATCTCACGTGAGTGT | 0.27
ATATGCACGTGGTTCT | -0.14
GATGTCACGTGTAAAT | 0.23
GATTTCACGTGGTAAT | 0.27
TATGGCACGTGAGTTG | 0.13
TTTGTCACGTGTGCTC | 0.06
GGTTGCACGTGCGCGT | -0.14
GATGTCACGTGCGGAT | 0.23
AGTGTCACGTGGGGCT | -0.13
TGGTTCACGTGTCATG | 0.32
TTCGGCACGTGTGAGG | 0.04
TAAGTCACGTGTTCGA | 0.05
AATACCACGTGAGGGG | 0.18
ATGGTCACGTGGCTCG | 0.13
GGCTACACGTGGTGGA | 0.2

Sequence | relative binding free energy [kcal/mol]
TGTTGCACGTGTTGTT | 0.05
TGGATCACGTGGGGCG | -0.02
CGGTACACGTGAGGCG | 0.43
TAATTCACGTGAGAAG | 0.4
TGCGTCACGTGTTGAT | 0.17
AGTGGCACGTGCATAG | -0.28
GAATTCACGTGTATTA | 0.32
GGGTACACGTGGAAGC | 0.24
TAGGACACGTGCTGGT | 0.01
ATAATCACGTGTTCGT | -0.03
TTGGCCACGTGATAGG | 0.02
ATGGTCACGTGGTCAG | 0.01
GTAGTCACGTGTGGTC | 0.24
GGGTGCACGTGTCAAG | 0
ATGCTCACGTGTAGGG | 0.17
TTTAACACGTGCGGGT | 0.03
ATTGTCACGTGTAAGG | 0.26
GGGTGCACGTGTTACT | 0.13
TCGTGCACGTGTTCTT | -0.03
CTTAGCACGTGGTGGC | -0.09
TGGGGCACGTGGGACC | -0.24
ACGGACACGTGGTGTG | -0.16
GTTTCCACGTGTAGAG | 0.14
ATGTTCACGTGTTACG | 0.27
GGGGTCACGTGTTGTC | 0.24
TTCTGCACGTGGCGGT | 0.05

Sequence | relative binding free energy [kcal/mol]
GGAAGCACGTGTGACT | 0.09
GCTTACACGTGGATAG | 0.32
GGTATCACGTGGCATG | 0.02
GGGGTCACGTGCAGCG | 0.06
GAGTTCACGTGTGTAT | 0.37
TTTGACACGTGGCGCG | -0.11
AGAGTCACGTGCGGTC | 0.23
GTGTGCACGTGTGTAG | -0.01
AGAAGCACGTGTTTTT | 0.03
TTTGTCACGTGTCTAT | 0.05
CCGTGCACGTGGTGTA | -0.2
CCATGCACGTGGTTGG | -0.06
GTTATCACGTGGTAAA | 0.07
TGCGTCACGTGGTTCG | 0
GGAAACACGTGCTGGT | 0.03
CTAGACACGTGTGTTT | 0
ATTAGCACGTGGGGTC | -0.06
ATGAACACGTGTCGGT | 0.06
ACTTTCACGTGAGGGT | 0.33
TTGGGCACGTGATCAA | -0.06
AATTGCACGTGTGTTC | -0.01
TAGTGCACGTGGCATA | -0.22
GACTGCACGTGTGGGG | 0.15
TACATCACGTGGGGTT | -0.15
GTATCCACGTGCGGTT | 0.09
CTGCGCACGTGGGGCG | -0.23

Sequence | relative binding free energy [kcal/mol]
TAATGCACGTGGTTTC | -0.01
ATGGACACGTGTGTAG | 0.06
GGTTCCACGTGAGGGA | 0.37
TCTATCACGTGGTTTT | 0.27
TTGTTCACGTGTAGCT | 0.26
GTGGACACGTGGCGTG | 0.03
TAATTCACGTGTTGTA | 0.25
AAGTGCACGTGGGCAT | -0.32
GGGAGCACGTGGCAGT | -0.16
TTCAACACGTGGGGTA | -0.12
TATGTCACGTGAAGTA | 0.28
AGTTTCACGTGGCTGA | 0.18
AAGTACACGTGTGATG | 0.22
GCATTCACGTGGGGTG | 0.03
GCGATCACGTGTAGTT | 0.23
TGTGGCACGTGTCTTC | 0.01
TGGTCCACGTGATTGT | 0.15
GTTAGCACGTGAGTCT | 0.22
TCGATCACGTGCGGTG | 0.01
ATTGTCACGTGGGATT | 0.05
AGTAGCACGTGGTGAT | -0.15
TGCTTCACGTGGGTCG | 0.12
